For 78 molecules, nuclei count results are on record in the supplement of paper PMC8183993.

Each structure is given as a SMILES string. Several values for one entry are separate records, joined by “and”; a condition that tells them apart may be missing. Equal values may be shown once. Where a name gives a salt, the structure may show the parent alone. ± gives the standard deviation of the averaged measurements. In all, about 3,200 compounds were measured (“nuclei count (viability) relative to DMSO”: median about 99, lowest 2% from about 16 on). The list shows a part of the results.

For the experiment, the system named is U2OS. Briefly: nuclei count (viability) relative to DMSO (% of DMSO); higher = more viable cells. The following applies: 10 µM; 24 h. As for the experimental part: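 Primary image-based screen in U2OS cells: compounds at 10 uM for 24 h, then a 1 h o-propargyl-puromycin (OPP) pulse, click labelling, and high-throughput microscopy. Mean cytoplasmic OPP intensity and nuclei count were normalised to DMSO wells within each plate (DMSO = 100) and averaged over triplicate plates.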
In turn, `CC(C)CC(NC(=O)OCC1c2ccccc2-c2ccccc21)C(=O)O` (stereo not drawn) came in with a nuclei count of 96.9.

Molecule `C[N+]1(C)CCC(=C(c2ccccc2)c2ccccc2)CC1` [Diphemanil methylsulfate] showed a nuclei count of 98.1.

`COc1cc(/C=C/C(=O)O)ccc1O` [Fumalic acid (Ferulic acid)] had a nuclei count of 110.

`O=C(NC1CCOCC1)c1ccc(-c2cc(-c3c[nH]nc3-c3ccccn3)ccn2)cc1` came in with a nuclei count of 105.

In turn, `O=C1C(=O)N(Cc2ccc(Cl)c(Cl)c2)c2ccccc21` [Apoptosis Activator 2] displayed a nuclei count of 54.2.

`NS(=O)(=O)c1cc2c(cc1Cl)NCNS2(=O)=O` [Hydrochlorothiazide] yielded a nuclei count of 109.

Consider `O=C1c2cccc(O)c2C(=O)c2c(O)cc(CO)cc21` [Aloe-emodin], for which the nuclei count was 96.3.

Regarding `CN(C)CCC=C1c2ccccc2C=Cc2ccccc21` [Cyclobenzaprine hydrochloride], the nuclei count turned out to be 81.6.

With `CN(C)CCc1c[nH]c2ccc(C[C@H]3COC(=O)N3)cc12` [Zolmitriptan (Zomig)], the nuclei count was 99.

Molecule `CC(C)(F)C[C@H](N[C@@H](c1ccc(-c2ccc(S(C)(=O)=O)cc2)cc1)C(F)(F)F)C(=O)NC1(C#N)CC1` [Odanacatib (MK 0822)] registered a nuclei count of 86.6.

For `COc1cc(C)c(/C=C/C(C)=C/C=C/C(C)=C/C(=O)O)c(C)c1C` [Acitretin], the nuclei count was 95.1 ± 8.5.

`C[C@H](NC(=O)[C@@H]1CCCN1C(=O)[C@@H]1CCCN1C(=O)[C@@H](O)[C@H](N)Cc1ccccc1)C(N)=O` [Apstatin] returned a nuclei count of 99.4.

Take `CC(c1cc2ccccc2s1)N(O)C(N)=O` (stereo not drawn) [Zileuton]: the nuclei count was 106.

As for `Nc1ccc(-c2cccc3c(=O)cc(N4CCOCC4)oc23)cc1`, the nuclei count amounted to 80.5.

The molecule `CC[N+](C)(CC)CC(=O)Nc1c(C)cccc1C` [N-Methyllidocaine iodide] came in with a nuclei count of 98.4.

`C[C@@H]1C(=O)O[C@H]2C[C@@]34[C@H]5C[C@@H](C(C)(C)C)[C@]36[C@@H](OC(=O)[C@@H]6O)O[C@@]4(C(=O)O5)[C@]21O` [Ginkgolide A]: the nuclei count was found to be 96.3.

Take `CC(=O)Oc1cc(C(C)C)c(OCCN(C)C)cc1C` [Moxisylyte hydrochoride]: the nuclei count stood at 99.6.

Molecule `CC1=C(/C=C/C(C)=C/C=C/C(C)=C/C(=O)Nc2ccc(O)cc2)C(C)(C)CCC1` [Fenretinide] returned a nuclei count of 86.8.

`NC(=O)c1ncn([C@@H]2O[C@H](CO)[C@@H](O)[C@H]2O)c1N` registered a nuclei count of 103.

In the case of `NC(=O)c1ncn([C@@H]2O[C@H](CO)[C@@H](O)[C@H]2O)c1N` [Acadesine], the nuclei count worked out at 107 ± 7.9.

Regarding `CCCCC(=O)O[C@]1(C(=O)CO)[C@@H](C)C[C@H]2[C@@H]3CCC4=CC(=O)C=C[C@]4(C)[C@@]3(F)[C@@H](O)C[C@@]21C` [Betamethasone valerate (Betnovate)], the nuclei count stood at 109.

`CC(=O)OCC(=O)[C@@]1(O)CC[C@H]2[C@@H]3CCC4=CC(=O)C=C[C@]4(C)[C@@]3(F)[C@@H](O)C[C@@]21C` [Isoflupredone acetate] yielded a nuclei count of 105.

In turn, `CC(=O)OCC(=O)[C@@]1(O)CC[C@H]2[C@@H]3CCC4=CC(=O)CC[C@]4(C)[C@H]3C(=O)C[C@@]21C` [Cortisone acetate (Cortone)] came in with a nuclei count of 108.

On to `Cn1cc(C(=O)OCC2CCN(CCNS(C)(=O)=O)CC2)c2ccccc21`, for which the nuclei count is 102.

`C#C[C@]1(O)CC[C@H]2[C@@H]3[C@H](C)CC4=C(CCC(=O)C4)[C@H]3CC[C@@]21C` [Tibolone]: the nuclei count stood at 97.4.

Consider `OC[C@@H](O)[C@@H](O)[C@H](O)[C@@H](O)CO` [Sorbitol (Glucitol)], for which the nuclei count was determined as 104.

Molecule `C[C@@H](CN1CCC(n2c(=O)[nH]c3cc(Cl)ccc32)CC1)NC(=O)c1ccc2ccccc2c1` displayed a nuclei count of 101.

Consider `O=C(O)COc1cccc(-c2ocnc2-c2nc(-c3ccccc3)c(-c3ccccc3)o2)c1`, for which the nuclei count turned out to be 105.

In turn, `O=C1c2c(O)cc(O)cc2OC(c2ccc(O)c(O)c2)C1O` (stereo not drawn) [Taxifolin (Dihydroquercetin)] showed a nuclei count of 90.7.

As for `CN(C)CCCOc1nn(Cc2ccccc2)c2ccccc12` [Benzydamine hydrochloride], the nuclei count is 109.

As for `COc1ccc(Nc2nccc(NCCO)n2)cc1` [Cardiogenol C hydrochloride], the nuclei count was determined as 90.8.

`FC(F)(F)c1ccc(/C=C/c2nc(COc3ccc(CCCCn4ccnn4)cc3)co2)cc1` [Mubritinib (TAK 165)] came in with a nuclei count of 109.

As for `FC(F)(F)c1ccc(/C=C/c2nc(COc3ccc(CCCCn4ccnn4)cc3)co2)cc1`, the nuclei count was determined as 100.

Regarding `CC(C)NCCN(C(C)C)S(=O)(=O)c1ccc(Cl)cc1Cl`, the nuclei count came out at 79.5.

Molecule `O=C1c2ccccc2C(=O)c2c(NCCc3ccc(O)cc3)ccc(NCCc3ccc(O)cc3)c21` yielded a nuclei count of 97.1.

`Nc1ccn(C[C@@H](CO)OCP(=O)(O)O)c(=O)n1` [Cidofovir (Vistide)] came in with a nuclei count of 101.

As for `CNC(=O)c1nn(C)c2c1C(C)(C)Cc1cnc(Nc3ccc(N4CCN(C)CC4)cc3)nc1-2`, the nuclei count is 54.8 and 36.4.

`CC(C)(O)CC[C@@H](O)[C@](C)(O)[C@H]1CC[C@@]2(O)C3=CC(=O)[C@@H]4C[C@@H](O)[C@@H](O)C[C@]4(C)[C@H]3CC[C@]12C` [20-Hydroxyecdysone] gave a nuclei count of 94.5.

Regarding `Cc1ccc(/C=N/NC(=O)c2ccccc2Oc2ccccc2)o1`, the nuclei count was 95.7 and 104.

On to `Nc1ccc(S(=O)(=O)Nc2ccc(Cl)nn2)cc1` [Sulfachloropyridazine], for which the nuclei count was 104.

For the molecule `COc1cc2nc(N3CCN(C(=O)C4CCCO4)CC3)nc(N)c2cc1OC` (stereo not drawn) [Terazosin hydrochloride], the nuclei count stood at 93.3 ± 9.9.

In turn, `CN1CCN(c2cccc(Nc3nc4c(-c5ccc(S(C)(=O)=O)cc5)cccn4n3)c2)CC1` displayed a nuclei count of 95.2 ± 2.6.

The molecule `Oc1ccc(O)cc1` [Hydroquinone] came in with a nuclei count of 64.9.

For the molecule `CC1(CN2CCC(n3c(=O)[nH]c4ccccc43)CC2)OCc2ccccc2-n2cccc21` (stereo not drawn), the nuclei count turned out to be 84.2.

In the case of `NC(=O)c1noc([C@H](CCCC2CCCCC2)CC(=O)NO)n1`, the nuclei count is 84.7.

In the case of `COc1ccc(CCN(C)CCc2ccc(OC)c(OC)c2)cc1OC` [YS-035 hydrochloride], the nuclei count stood at 108.

On to `COc1ccc(CCN(C)CCc2ccc(OC)c(OC)c2)cc1OC`, for which the nuclei count was 83.3.

Regarding `CC(=O)O[C@]1(C(C)=O)CC[C@H]2[C@@H]3C=C(C)C4=CC(=O)CC[C@@H]4[C@H]3CC[C@@]21C` [Nomegestrol acetate], the nuclei count stood at 102.

Molecule `CC[C@@]1(O)C(=O)OCc2c1cc1n(c2=O)Cc2cc3cc(O)ccc3nc2-1` [10-Hydroxycamptothecin] displayed a nuclei count of 43.

The molecule `CC(C)Oc1cccc(-n2c(CCc3c[nH]c4ccc(Br)cc34)nc3ccccc3c2=O)c1` yielded a nuclei count of 106.

Consider `CCCn1c(=O)c2[nH]c(-c3ccccc3)nc2n(CCC)c1=O` [1,3-Dipropyl-8-phenylxanthine], for which the nuclei count is 98.9.

Molecule `Cc1cnc(Nc2ccc(N3CCN(C)CC3)cc2)nc1Nc1cccc(S(=O)(=O)NC(C)(C)C)c1` showed a nuclei count of 5.44.

Consider `CC(C)CCN1c2nc(Nc3cc(F)c(O)c(F)c3)ncc2N(C)C(=O)C1C` (stereo not drawn), for which the nuclei count was 54 ± 3.2.

`O=C1NC(=O)/C(=C/c2ccc(-c3ccc(F)cc3O)o2)S1` yielded a nuclei count of 104.

Regarding `CC(=O)OC/C=C(C)/C=C/C=C(C)/C=C/C1=C(C)CCCC1(C)C` [Retinyl acetate], the nuclei count came out at 92.9.

Molecule `Clc1ccc2c(c1)N=C(N1CCNCC1)c1ccccc1N2` [N-Desmethylclozapine] returned a nuclei count of 95.2.

Take `NS(=O)(=O)c1cc2c(cc1Cl)N=C(CSCc1ccccc1)NS2(=O)=O` [Benzthiazide]: the nuclei count was found to be 106.

As for `O=C1C(CC[S+]([O-])c2ccccc2)C(=O)N(c2ccccc2)N1c1ccccc1` (stereo not drawn) [Sulfinpyrazone], the nuclei count is 103.

For the molecule `O=c1ncn2nc(Sc3ccc(F)cc3F)ccc2c1-c1c(Cl)cccc1Cl`, the nuclei count was found to be 99.6.

`O=C(O)CC/C=C\C[C@H]1CO[C@@H](c2ccccc2Cl)O[C@H]1c1ccccc1O` had a nuclei count of 95.2.

`C[C@]12C=CC(=O)C=C1CC[C@@H]1[C@@H]2[C@@H](O)C[C@@]2(C)[C@H]1CC[C@]2(O)C(=O)CO` [Prednisolone (Hydroretrocortine)]: the nuclei count was determined as 98.9.

In turn, `C[C@]12C=CC(=O)C=C1CC[C@@H]1[C@@H]2[C@@H](O)C[C@@]2(C)[C@H]1CC[C@]2(O)C(=O)CO` [Prednisolone] had a nuclei count of 95.

With `O=c1[nH]cc(F)c(=O)[nH]1` [5-fluorouracil], the nuclei count was determined as 115.

`CS(=O)(=O)c1ccc([C@@H](O)[C@@H](CO)NC(=O)C(Cl)Cl)cc1` [Thiamphenicol] yielded a nuclei count of 79.5.

`Cc1cncc(CN2CCC(=C3c4ccc(Cl)cc4CCc4cccnc43)CC2)c1` [Rupatadine Fumarate]: the nuclei count stood at 97.7.

`CC(C)Cc1ccc([C@H](C)C(=O)O)cc1` [S-(+)-ibuprofen] yielded a nuclei count of 103.

Molecule `CC(=O)Oc1cc(C(F)(F)F)ccc1C(=O)O` [Triflusal] registered a nuclei count of 95.4.

`CC(C)C(=O)SCCCCCCC(=O)Nc1nc(-c2ccccc2)cs1` returned a nuclei count of 45.8.

Take `CCCCCCCC/C=C\CCCCCCCC(=O)NCc1ccc(O)c(OC)c1` [Olvanil]: the nuclei count came out at 98.1.

In turn, `CNC(=O)c1ccc2cc([C@@]3(O)CCn4cncc43)ccc2c1` [TAK-700 (Orteronel)] returned a nuclei count of 102.

On to `N=c1ccn2c(n1)O[C@H]1[C@H](O)[C@@H](CO)O[C@H]12` [Cyclocytidine HCl], for which the nuclei count was 59.5.

As to `COc1ccc(-c2nc(C(=O)N3CCN(C)CC3)sc2-c2ccc(OC)cc2)cc1`, the nuclei count was determined as 99.4.

Molecule `C[C@@H]1CC(=O)NN=C1c1ccc(NN=C(C#N)C#N)cc1` [Levosimendan] yielded a nuclei count of 83.3.

`C[C@@H](c1ncncc1F)[C@](O)(Cn1cncn1)c1ccc(F)cc1F` [Voriconazole] registered a nuclei count of 105.

In turn, `Cc1nn(C)c2nc(NNC(=O)Nc3cc(Cl)nc(Cl)c3)cc(C(C)C)c12` showed a nuclei count of 106.

For `O=C(O)Cc1ccccc1Nc1c(Cl)cccc1Cl` [Diclofenac sodium], the nuclei count amounted to 104.

Take `O=C(O)Cc1ccccc1Nc1c(Cl)cccc1Cl` [Diclofenac Diethylamine]: the nuclei count turned out to be 103.

Molecule `Cc1c(NC(=O)c2ccc(C(C)(C)C)cc2)cccc1-c1cn(C)c(=O)c(Nc2ccc(C(=O)N3CCOCC3)cc2)n1` had a nuclei count of 96.5.
